Data from PubChem BioAssay AID485294 (National Center for Advancing Translational Sciences (NCATS), 2010).
Among all 370,000 compounds or so, about 150 (0.041%) were called active. Inconclusive results, whose numbers are uncertain, are shown with a selection of clear calls. Calls follow the shape of the dose curve; as a rule, active = well fitted inhibition curve with a large enough effect; inconclusive = small, poorly fitted or top-dose-only effect; inactive = flat fitted curve, though single readings scatter. Potencies of inconclusive entries are left out as doubtful fits. Peptide text beside a SMILES is read from it. * marks the point of attachment. Boc = CC(C)(C)OC(=O)*

What follows are molecules tested against Beta-lactamase (Escherichia coli (strain K12)) (UniProt P00811) (assay: qHTS Inhibitors of AmpC Beta-Lactamase (assay with detergent)). Conditions: AmpC hydrolysis of nitrocefin, absorbance 480 nm, 0.01% Triton; activity change, negative = inhibition: at 114 µM (top of the series).
Sequence of UniProt P00811 (P00811 whole entry, looked up): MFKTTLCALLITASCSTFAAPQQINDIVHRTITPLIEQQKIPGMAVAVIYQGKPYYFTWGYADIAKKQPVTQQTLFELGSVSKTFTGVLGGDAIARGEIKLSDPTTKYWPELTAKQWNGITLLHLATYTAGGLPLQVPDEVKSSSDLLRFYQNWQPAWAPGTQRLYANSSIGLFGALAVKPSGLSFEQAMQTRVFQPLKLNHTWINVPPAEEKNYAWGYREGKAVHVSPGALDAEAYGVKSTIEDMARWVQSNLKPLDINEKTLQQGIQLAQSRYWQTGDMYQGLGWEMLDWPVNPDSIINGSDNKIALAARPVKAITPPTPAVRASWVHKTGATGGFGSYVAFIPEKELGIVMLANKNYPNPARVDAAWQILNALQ
In short: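 20 mM phosphate pH 7.0 + 0.01% (detergent screen) or 0.0001% Triton X-100; 5.3 nM AmpC reagent; cpd preinc 15 min RT; nitrocefin (800 uM stock) to start; A480 q20 s × 4 min; Activity was normalised to no-enzyme and no-compound control wells.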
Also: nearly all actives have a fitted effect of over 25% in size.
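For activity change, negative = inhibition in this document: 0% = no-compound wells and -100% = no-enzyme wells.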
Potency is read from the fitted curve at half-maximal effect; tags tell the direction and shape of the fitted curve.

| SMILES | Potency | activity change, negative = inhibition |
| --- | --- | --- |
| Cc1nn(Cc2c(Cl)cccc2Cl)c(C)c1NC(=O)c1cc(C(C)C)on1 | inconclusive [inhibitor, full curve, poor fit] | – |
| COc1ccc(OCC(=O)Nc2ccc(C)cc2)cc1 | inconclusive [inhibitor, single point] | – |
| CCOC1=C/C(=C/c2c(N)n3nc(S(=O)(=O)CC)sc3nc2=O)C=CC1=O | – | inactive: -7.8% |
| O=C1NN(c2ccccc2)C(=O)/C1=C\c1cccc(OC(=O)c2cccs2)c1 | inconclusive [inhibitor, single point] | – |
| CCn1cnc2sc(C(=O)Oc3ccc(Br)cc3)c(C)c2c1=O | inconclusive [inhibitor, single point] | – |
| Cc1ccc(C)c(CN2C(=O)C(C)Oc3ccc(C)cc32)c1 (centres undefined) | inconclusive [inhibitor, partial curve, poor fit] | – |
| CC1CCCC(NC(=S)NC(=O)c2ccccc2Br)C1C (centres undefined) | inconclusive [inhibitor, full curve] | – |
| CCN(CCCNC(=O)CC1Oc2ccc(C)cc2NC1=O)Cc1ccccc1 (centres undefined) | inconclusive [inhibitor, full curve, poor fit] | – |
| CCOc1ccc(NC(=O)c2ccc(N3CC4CC(C3)c3cccc(=O)n3C4)c(NC(=O)c3cccnc3)c2)cc1 (centres undefined) | inconclusive [inhibitor, partial curve, poor fit] | – |
| c1ccc(-c2cnn3c(-c4ccccc4)c(-c4ccccc4)nc3n2)cc1 | inconclusive [inhibitor, partial curve] | – |
| O=c1c2cc(N3CCOCC3)ccc2[nH]c(=S)n1Cc1ccco1 | inconclusive [inhibitor, full curve, poor fit] | – |
| CCOC(=O)c1c(-c2ccc(C)cc2)cn2ccccc12 | – | inactive: 0.546% |
| CC(C)(C)c1ccc(/C=N/NC(=O)C(=O)NCCCN2CCOCC2)cc1 | inconclusive [inhibitor, single point] | – |
| Cc1ccc(-n2nc(C)c3c(C(=O)NCc4ccc(F)cc4)cc(C)nc32)cc1 | – | inactive: 14.1% |
| COc1ccc(C2c3c(oc4ccc(Cl)cc4c3=O)C(=O)N2Cc2ccco2)cc1OC (centres undefined) | inconclusive [inhibitor, partial curve, poor fit] | – |
| Cc1cc(C(=O)Nc2ccc(N3CCOCC3)c(Cl)c2)c(C)o1 | – | inactive: -0.667% |
| Cc1cc(/C=C2/C(=O)NC(=O)N(c3ccc(Br)cc3)C2=O)c(C)n1C | – | inactive: 5.63% |
| CC(c1ccccc1)(c1ccccc1)c1ccncc1 | inconclusive [inhibitor, full curve] | – |
| COc1ccc(C2=NN(C(=O)CCC(=O)O)C(c3ccccc3)C2)cc1 (centres undefined) | – | inactive: 3.01% |
| Cc1ccc(OCc2nc(-c3ccc(C(=O)N4CCN(c5ccccc5)CC4)cc3)oc2C)cc1 | inconclusive [inhibitor, single point] | – |
| O=C(NCc1ccccc1Cl)c1ccc(Nc2nc3ccccc3n3nnnc23)cc1 | – | inactive: 12.2% |
| CN(C(=O)C1CCCC1)C1CCS(=O)(=O)C1 (centres undefined) | inconclusive [inhibitor, full curve] | – |
| O=C(Nc1ncccn1)C12CC3CC(CC(C3)C1)C2 | – | inactive: 1.24% |

| SMILES | Potency | activity change, negative = inhibition |
| --- | --- | --- |
| Cc1cc(C(=O)N/N=C/c2ccc(N(C)C)o2)cs1 | – | inactive: -0.529% |
| Cc1cccc(-n2nnc3c(=O)n(Cc4ccccn4)cnc32)c1 | inconclusive [inhibitor, single point] | – |
| CC(=O)N[C@@H](Cc1ccc(O)cc1)CN1C(N)=NC[C@@H]1CC(C)C | inconclusive [inhibitor, partial curve, poor fit] | – |
| O=S(=O)(c1ccccc1)N1N=C(c2ccc(Br)cc2)CC1c1ccco1 (centres undefined) | – | inactive: -1.26% |
| O=C(Nc1cccc(Cl)c1N1CCCC1)c1ccc([N+](=O)[O-])o1 | inconclusive [inhibitor, full curve, poor fit] | – |
| CCNC(=S)N/N=C/c1ccco1 | inconclusive [inhibitor, single point] | – |
| c1ccc(-c2ccc(-c3nc(-c4ccccn4)no3)cc2)cc1 | – | inactive: -1.14% |
| CCc1ccc(CNC(=O)CCc2nnc(Cc3cccc(C(F)(F)F)c3)o2)nc1 | – | inactive: 6.9% |
| CCN1C(=O)/C(=c2\o/c(=C3\C=Cc4ccccc4N3CC)c(=O)n2CC)SC1=S | inconclusive [inhibitor, partial curve, poor fit] | – |
| O=C(Nc1ccc(Cl)cc1)C(c1ccccc1)N(CCO)CCO (centres undefined) | – | inactive: -8.78% |
| CC1(NC(=S)N(CCO)CCO)CCS(=O)(=O)C1 (centres undefined) | inconclusive [inhibitor, full curve, poor fit] | – |
| Cn1c(N2CCN(C(=O)C34CC5CC(CC(C5)C3)C4)CC2)nc2ccccc21 | inconclusive [inhibitor, full curve, poor fit] | – |
| CNC(=O)c1[nH]cnc1C(=O)Nc1cccc(OC)c1 | inconclusive [inhibitor, full curve] | – |
| O=C(CCCOc1ccccc1)N1CCN(c2ccc(F)cc2)CC1 | – | inactive: -5.44% |
| O=[N+]([O-])c1nn(-c2ccc3c(c2)OCCO3)n(O)c1=NCc1ccccc1Cl | inconclusive [inhibitor, full curve, poor fit] | – |
| COc1ccc(CNC(=O)Cn2nnc(-c3ccc(NC(=O)C4CCCCC4)cc3)n2)cc1 | inconclusive [inhibitor, full curve] | – |
| CCOc1ccc(NC(=O)CSc2nc3[nH]ncc3c(=O)n2-c2ccccc2OC)cc1 | inconclusive [inhibitor, full curve, poor fit] | – |
| CC(C)NC(=O)c1ccc2c(c1)N(Cc1ccccc1)C(=O)C(C)(C)O2 | inconclusive [inhibitor, full curve, poor fit] | – |
| COc1cccc2oc(-c3ccco3)cc(=O)c12 | inconclusive [inhibitor, partial curve, poor fit] | – |
| Cc1cccc(OC(=O)N2CCOCC2)c1 | inconclusive [inhibitor, full curve, poor fit] | – |
| CCn1c(=S)sc2c(=O)n(CC(=O)Nc3ccccc3)c(C)nc21 | inconclusive [inhibitor, full curve, poor fit] | – |
| CN(/N=C/c1cc(Br)cc(Br)c1O)c1cccc(C(F)(F)F)n1 | – | inactive: -11.3% |
| Cc1ccc(-c2nnn(CC(=O)N(Cc3ccccc3)C(C(=O)NC3CCCC3)c3ccncc3)n2)o1 (centres undefined) | inconclusive [inhibitor, partial curve, poor fit] | – |

| SMILES | Potency | activity change, negative = inhibition |
| --- | --- | --- |
| O=S(=O)(c1cccc(F)c1)N1CCN(C(=S)NCc2ccccc2)CC1 | inconclusive [inhibitor, single point] | – |
| CCOC(=O)c1c(NC(=O)CSc2nc(-c3ccccc3)cc(C(F)(F)F)n2)sc(C)c1C | – | inactive: -5.32% |
| N#Cc1ncc(Cc2ccccc2)nc1C#N | inconclusive [inhibitor, full curve, poor fit] | – |
| Cc1csc(NC(=O)CSc2nnc(-c3ccccc3)o2)n1 | – | inactive: -1.5% |
| Cc1cc(C)cc(Nc2nc3ccccc3c(=O)[nH]2)c1 | – | inactive: 0.0061% |
| COc1ccc(-c2nc(N=Nc3ccc(O)cc3)n[nH]2)cc1 | – | inactive: -9.19% |
| O=C(CCCN1C(=O)c2ccccc2C1=O)Nc1ccc2c(c1)OCCO2 | inconclusive [inhibitor, full curve] | – |
| CCOc1ccc(CCNC(=O)Cn2nnc(-c3ccc(C(F)(F)F)cc3)n2)cc1OCC | – | inactive: 1.81% |
| CNS(=O)(=O)c1ccc(NC(=O)Nc2ccc3c(c2)OCO3)cc1 | inconclusive [inhibitor, full curve] | – |
| O=C(OCc1nc2ccccc2s1)c1cccs1 | – | inactive: -9.35% |
| CCC(=O)n1nc(-c2ccc(Cl)cc2)nc1SC | – | inactive: -12.4% |
| CCOC(=O)c1cnc2c(-c3ccccc3)cnn2c1N | inconclusive [inhibitor, partial curve] | – |
| Cc1ccc(NC(=O)CSCc2c(C)noc2C)cc1C | inconclusive [inhibitor, full curve, poor fit] | – |
| Cc1cccc(-c2nc(CS(=O)CC(=O)NC3CCCC(C)C3C)c(C)o2)c1 (centres undefined) | inconclusive [inhibitor, full curve, poor fit] | – |
| CC(C)(C)n1nc2c(c1NC(=O)c1cc(Cl)ccc1[N+](=O)[O-])CS(=O)(=O)C2 | inconclusive [inhibitor, partial curve, poor fit] | – |
| O=C(c1ccccc1F)N(Cc1cccs1)C1CCS(=O)(=O)C1 (centres undefined) | inconclusive [inhibitor, full curve, poor fit] | – |
| Cc1noc(C)c1CSCC(=O)N(C)CC(=O)Nc1ccc(Cl)c(Cl)c1 | inconclusive [inhibitor, single point] | – |
| Cc1ccc(NC(=O)CN2C(=O)c3ccccc3C2=O)cc1 | inconclusive [inhibitor, full curve] | – |
| CCC(C)(C)NC(=O)Cn1c(=O)ccc2cc(S(=O)(=O)N3CCC(C)CC3)ccc21 | – | inactive: 2.46% |
| Cc1ccc(S(=O)(=O)N2C(=O)/C(=C3\SC(=S)NC3=O)c3ccccc32)cc1 | inconclusive [inhibitor, partial curve] | – |
| COc1ccc(C2/C(=C(/O)c3ccc(F)cc3)C(=O)C(=O)N2c2ccccn2)cc1OC (centres undefined) | inconclusive [inhibitor, full curve, poor fit] | – |
| CC(C)(CCl)C(=O)Nc1ccc(OC(F)(F)F)cc1 | – | inactive: 8.22% |
| CCOC(=O)C(Cc1ccc(O)cc1)NC(=O)CNC(=O)C1CCCN1C(=O)OC(C)(C)C (stereo not drawn) (Boc-Pro-Gly-Tyr-OEt; configuration not given here) | inconclusive [inhibitor, full curve, poor fit] | – |
